“And” between values parts separate entries of the source, which are not always exact repeats. Identical values can stand only once. Among all 48,000 compounds or so, about 1,200 (2.5%) were called active. Inconclusive results (about 2%) are left out.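 How the source made its calls: active means activation of at least 60% and not above a set upper limit (about 1 call in 100 departs from these limits); inconclusive means activation of 40% to 60%, or above that upper limit; inactive means activation under 40%.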 Some of the results follow.
What follows are compounds tested against Probable G-protein coupled receptor 32 (Homo sapiens) (UniProt O75388) (assay: qHTS for Agonists of Human Resolvin D1 Receptor DRV1). Details: CHO-K1 GPR32 beta-arrestin PathHunter luminescence, 90 min; at 76.9 µM; active compounds read high; zero percent set by DMSO-only wells.
Sequence of UniProt O75388 (O75388 whole entry, looked up): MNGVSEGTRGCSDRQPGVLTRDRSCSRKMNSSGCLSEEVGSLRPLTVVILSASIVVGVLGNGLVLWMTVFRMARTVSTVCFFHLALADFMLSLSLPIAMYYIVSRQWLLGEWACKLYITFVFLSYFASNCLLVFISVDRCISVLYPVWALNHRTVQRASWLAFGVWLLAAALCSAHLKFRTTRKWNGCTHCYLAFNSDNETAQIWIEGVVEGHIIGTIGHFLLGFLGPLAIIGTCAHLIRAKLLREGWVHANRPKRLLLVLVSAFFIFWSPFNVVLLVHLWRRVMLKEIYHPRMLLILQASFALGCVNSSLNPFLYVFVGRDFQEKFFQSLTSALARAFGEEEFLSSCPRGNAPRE
Summary of the method: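 Beta-arrestin recruitment read-out: luminescence from complemented beta-Gal in CHO-K1 GPR32 PathHunter cells, measured 1 h after detection reagent at ambient temperature following 90 min compound exposure at 37 °C; DMSO served as basal (EC0) control.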
Further: 0% is about no effect.

Compound | activation
COc1cc(NC(=O)c2cc(S(=O)(=O)N3CCC(C)CC3)cn2C)cc(OC)c1OC | inactive: -3.33%
O=C(CSc1ncc(CO)n1Cc1ccc(F)cc1)NCc1ccco1 | inactive: 7.63%
COc1cc(O)ccc1-c1nc2cc(C)ccn2c1Nc1ccccc1C | inactive: 8.02%
O=C(Nc1cccc(F)c1)C1CCN(S(=O)(=O)c2ccc3[nH]c4c(c3c2)CCCCC4)CC1 | inactive: 9.43%
COc1ccc(NC(=O)CSc2nc3nc(C)cc(C)n3n2)cc1OC | inactive: 3.78%
Cc1cccc2c(=O)cc(CSc3ccccc3NC(=O)c3cccc(Br)c3)[nH]c12 | inactive: -1.52%
CCc1ccc(S(=O)(=O)Nc2cccc(-c3ccc(OC)nn3)c2)s1 | inactive: 9.06%
Fc1ccc(C(c2ccc(F)cc2)N2CCN(C/C=C/c3ccccc3)CC2)cc1 | inactive: 40.2% and inactive: -11.9%
CCOc1ccccc1NC(=O)NCc1noc2ccc(C)cc12 | inactive: -10.8%
COC(=O)C1=C(C)NC(C)=C(C(=O)OCC(C)=O)C1c1ccccc1[N+](=O)[O-] (stereo unspecified) | inactive: -7.97%
O=c1n(Cc2ccc(Cl)cc2)nc2n1-c1ccccc1OC2 | inactive: 16.5%
COc1cccc(NC(=O)c2sc3nc(C)c(C(=O)Nc4ccc(C)cc4C)c(-c4ccc(C)o4)c3c2N)c1 | inactive: -16%
CCC1CCCCN1CCCNC(=O)c1c(C)oc2ncn(CC(C)C)c(=O)c12 (stereo unspecified) | inactive: -8.9%
COc1cccc2c1cc1c(=O)n(CC(=O)NCc3ccc(N(C)C)cc3)nc(C)n12 | inactive: -9.41%
COc1cc(C(=O)NCC(c2ccc3c(c2)OCO3)N2CCN(C)CC2)cc(OC)c1OC (stereo unspecified) | inactive: -19.4%
Cc1ccc(N2CC(C(=O)NCc3nnnn3-c3ccc(C)c(C)c3)CC2=O)cc1C (stereo unspecified) | inactive: -11.1%
CCOc1cccc(C(=O)Nc2ccc(-c3nc4cc(C)cc(C)c4o3)cc2)c1 | inactive: -3.67%
CCc1ccccc1NC(=O)Cn1nnc(C(=O)Nc2ccc(OC)c(OC)c2)c1N | inactive: 3.23%
CCc1ccc(S(=O)(=O)N2CCN(c3ccc(Cl)c(Cl)c3)CC2)cc1 | inactive: -4.09%
CCOC(=O)c1ccccc1NC(=O)c1nn(-c2ccc(C)cc2)c(=O)n(C)c1=O | inactive: -1.65%
CCCCN(Cc1ccco1)C(=O)c1cc2c(s1)-c1c(C)cccc1OC2 | inactive: -15.5%

Compound | activation
Cc1cccc(NC(=O)c2oc3ccc(S(=O)(=O)N(C)C4CCCCC4)cc3c2C)c1C | inactive: -16%
Cc1cccc(OCCOCCn2c(-c3ccc(Cl)cc3)nc3ccccc3c2=O)c1C | inactive: 8.94%
CCOCCCNC(=O)Cn1cc2c(n1)-c1c(oc(C(=O)N3CCCC3)c1C)CC2 | inactive: 15.8%
COc1c(Cl)cc(Cl)cc1/C=C(\C#N)c1nc(-c2ccc(Cl)cc2)cs1 | inactive: -1.33%
COc1ccc(-n2ncc(C(=O)NCCCN3CCCCC3)c2C2CCN(C(=O)OC(C)(C)C)CC2)cc1 | inactive: -5.32%
COc1ccc(-c2cc(-c3ccc4c(c3)NC(=O)CO4)nc3c2COc2ccc(C)cc2-3)cc1 | inactive: -2.14%
CCc1ccccc1NC(=O)c1cnn(-c2ccc(F)cc2)c1C1CCNCC1 | inactive: -3.53%
Cc1c(NC(=O)C(F)(F)F)ccc2nc3c(=O)n(C)c(=O)n(C)c3nc12 | inactive: 29.9%
Nc1nc(N)c2nc(CNc3ccc(C(=O)NC(CCC(=O)O)C(=O)O)cc3)cnc2n1 (stereo unspecified) | inactive: 13.4%
Cc1ccc(C(C)C)c(OCCCn2c(=O)oc3ccc(C)cc32)c1 | inactive: -37.6%
Cc1ccccc1NC(=O)c1ccc(F)c(S(=O)(=O)N2CCc3ccccc3C2)c1 | inactive: -12.3%
COC(=O)Cn1ccc2cc(S(=O)(=O)N3CCCCC3)ccc21 | inactive: -11.4%
Cc1cc(C)c(S(=O)(=O)N2CCC(N3CCN(Cc4ccc(F)cc4)C(=O)C3=O)CC2)c(C)c1 | inactive: -6.4%
CC(C)c1ccc(NC(=O)c2cnn3c(C(F)F)cc(-c4ccccc4)nc23)cc1 | inactive: -8.71%
Cc1ccc(C)c(N2CCN(C(=O)C3CCC(CNS(=O)(=O)c4ccc(Br)s4)CC3)CC2)c1 (stereo unspecified) | inactive: -16.4%
O=C(O)COc1ccccc1C1Nc2ccccc2-c2nnc(SCc3ccc(Cl)cc3)nc2O1 (stereo unspecified) | active: 108%
COc1cccc(NC(=O)Cn2c(=O)n(CCCCC(=O)NCc3ccc4c(c3)OCO4)c(=O)c3ccccc32)c1 | inactive: -24.1%
CCOC(=O)N1CCC(NC(=O)c2cnn(-c3ccc(C)cc3)c2C2CCN(C(=O)OC(C)(C)C)CC2)CC1 | inactive: -9.3%
COc1ccc(-n2c(SCc3nc(-c4ccc(Cl)cc4)no3)nnc2-c2ccncc2)cc1 | inactive: -13%
CCOc1ccccc1C(=O)Nc1cc(-c2nc3cccnc3s2)ccc1C | inactive: -5.39%

From PubChem BioAssay AID1346428 (National Center for Advancing Translational Sciences (NCATS), 2018)
